Among all 220,000 compounds or so, about 2,300 (1%) were called active. Inconclusive results, whose numbers are uncertain, are shown with a selection of clear calls. The call rests on the fitted dose curve; in most records, active means well fitted inhibition curve with a large enough effect; inconclusive means small, poorly fitted or top-dose-only effect, or effect the other way; inactive means no such curve, though single readings can be large or run the other way. Potencies of inconclusive entries are left out as doubtful fits.
These compounds were tested against Neuropeptide S receptor (Homo sapiens) (UniProt Q6W5P4) (assay: qHTS Assay for Antagonists of the Neuropeptide S Receptor: cAMP Signal Transduction). Settings: CHO-NPSR cells, cAMP TR-FRET, antagonist mode; activity change, negative = inhibition: at 38.3 µM (top of the series) unless noted.
Sequence of UniProt Q6W5P4 (Q6W5P4 whole entry, looked up): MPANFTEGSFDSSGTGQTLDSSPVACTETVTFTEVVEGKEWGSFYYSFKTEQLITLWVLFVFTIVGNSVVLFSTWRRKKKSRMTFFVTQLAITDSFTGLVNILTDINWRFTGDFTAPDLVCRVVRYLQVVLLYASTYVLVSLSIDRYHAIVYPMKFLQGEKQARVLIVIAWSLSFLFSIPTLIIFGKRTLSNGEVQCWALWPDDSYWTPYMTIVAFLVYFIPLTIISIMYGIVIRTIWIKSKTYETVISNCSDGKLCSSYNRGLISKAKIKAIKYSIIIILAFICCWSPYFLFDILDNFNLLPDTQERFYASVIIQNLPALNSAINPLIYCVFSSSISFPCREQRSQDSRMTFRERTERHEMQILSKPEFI
With `S=c1[nH]nc(-c2ccc(Cl)cc2)n1-c1cccnc1` the “activity change, negative = inhibition” value was inactive: -12.1%. With `CCOC(=O)c1sc(NC(=O)CSC(=S)N2CCN(C)CC2)nc1C` the “activity change, negative = inhibition” value was inactive: 3.14%. For `Cc1cc(=O)[nH]c(SCC(=O)/C=C2\N(C)c3ccccc3C2(C)C)n1`, the “activity change, negative = inhibition” value was inactive: 12.9%. In the case of `C[n+]1ccc(/C=C/c2ccccc2O)c2ccccc21`, the Potency is reported as active: 12.6 µM. In the case of `CN(C)c1cc(O)c(C(=S)Nc2ccccc2)c(N(C)C)c1`, the Potency is reported as inconclusive [inhibitor, single point]. In the case of `CC(Sc1ccc(Cl)cc1)C(=O)Nc1ccccc1-c1ccccc1` (stereo not given), the Potency is reported as inconclusive [inhibitor, single point]. `CCOC(=O)c1oc2cc(O)c(CC)cc2c(=O)c1-c1ccc2c(c1)OCCO2` was tested, and the Potency was inconclusive [inhibitor, partial curve]. In the case of `O=C1C=C(N2CCN(C3=CC(=O)CCC3)CC2)CCC1`, the “activity change, negative = inhibition” value is reported as inactive: -8.7% [at 46.1 µM]. `O=C(c1cc(-c2ccccc2)n[nH]1)N1CCc2c([nH]c3ccccc23)C1c1ccccn1` (stereo not given) was tested, and the Potency was inconclusive [activator, partial curve]. In the case of `C=CCOC(=O)C1=C(C)Nc2nnnn2C1c1cc(OC)ccc1OC` (stereo not given), the “activity change, negative = inhibition” value is reported as inactive: -13.9% [at 46.1 µM]. In the case of `S=C1SCN(Cc2ccccn2)CN1Cc1ccco1`, the Potency is reported as inconclusive [inhibitor, single point]. In the case of `CCOC(=O)c1c(NC(=O)c2nn(CC)cc2Br)c(C#N)nn1-c1ccccc1`, the Potency is reported as inconclusive [inhibitor, partial curve]. With `CC(C)(C)c1ccc2c(c1)OC(C(=O)N/N=C\c1ccncc1)CO2` (stereo not given) the “activity change, negative = inhibition” value was inactive: -2.67%. For `O=C(O)CCC(=O)N1CCc2cc(S(=O)(=O)NC3CCCc4ccccc43)ccc21` (stereo not given), the “activity change, negative = inhibition” value was inactive: -16.9% [at 46.1 µM]. With `CC(NCc1ccc(OCc2ccc(Cl)cc2)cc1)C(O)c1ccccc1` (stereo not given) the Potency was inconclusive [inhibitor, single point]. For `O=C(Nc1ccc(OC(F)F)c(Cl)c1)c1cccc(OC(F)F)c1`, the Potency was inconclusive [inhibitor, single point]. For `CCOC(=O)c1cc(-c2ccc(Cl)s2)[nH]n1`, the Potency was inconclusive [activator, single point]. In the case of `CC(=O)c1ccc(-c2ccc([C@H]3[C@@H]4C=CCC[C@@]4(C)C(=O)N3Cc3ccccc3)c(F)c2)cc1`, the Potency is reported as inconclusive [inhibitor, single point]. In the case of `Cc1ccc(S(=O)(=O)Nc2cc(C(=O)NCCN3CCCC3)ccc2N2CCCCC2)cc1`, the Potency is reported as inconclusive [inhibitor, single point]. For `O=C(c1ccccc1Cl)N1CCC(c2nc3c(nnn3Cc3ccco3)c(=O)[nH]2)CC1`, the “activity change, negative = inhibition” value was inactive: 1.66% [at 46.1 µM]. For `CSc1ccc(S(=O)(=O)NCCSC(C)(C)C)cc1`, the “activity change, negative = inhibition” value was inactive: -16.3% [at 46.1 µM]. `COc1cc(S(=O)(=O)Nc2ccccc2)ccc1N=Cc1c(C)[nH]n(-c2ccc(C)cc2)c1=O` was tested, and the “activity change, negative = inhibition” value was inactive: -22.2%. In the case of `CO/N=C(\C(=O)N[C@@H]1C(=O)N2C(C(=O)O)=C(COC(C)=O)CS[C@H]12)c1csc(N)n1` (stereo in doubt), the Potency is reported as inconclusive [inhibitor, single point]. With `CC(C)(C)OC(=O)NCCc1nnc(S(=O)(=O)Cc2ccc(Cl)cc2Cl)o1` the Potency was inconclusive [inhibitor, partial curve]. For `CCCN1C=CC(=C2C(=O)c3ccccc3C2=O)C=C1`, the “activity change, negative = inhibition” value was inactive: -4.79% [at 46.1 µM]. In the case of `CC(C)Cn1c(SCC(=O)c2ccc(Cl)s2)nnc1-c1ccco1`, the Potency is reported as inconclusive [inhibitor, partial curve, poor fit]. For `O=C(NNc1cc(N2CCOCC2)nc(N2CCOCC2)n1)c1ccc(Cl)cc1Cl`, the “activity change, negative = inhibition” value was inactive: 16.6%. For `O=C1C(Cl)=C(N2CCN(Cc3ccccc3)CC2)C(=O)N1c1ccccc1`, the Potency was inconclusive [inhibitor, partial curve, poor fit]. For `N#Cc1c(NC(=O)c2ccccc2)sc2c1CCCCC2`, the “activity change, negative = inhibition” value was inactive: -23.8% [at 46.1 µM]. `CNC(CC(=O)c1ccc([N+](=O)[O-])cc1)C(Cl)(Cl)Cl` (stereo not given) was tested, and the Potency was inconclusive [inhibitor, single point]. `COC(=O)c1ccccc1NC(=O)COC(=O)c1ccc(C)c(NC(=O)c2ccco2)c1` was tested, and the Potency was inconclusive [inhibitor, single point]. For `C(=C\c1ccccc1)/CSc1nnc(-c2ccccc2)n1Cc1ccco1`, the Potency was inconclusive [activator, single point]. In the case of `C[C@@H](NC(=O)c1nc[nH]c1C(=O)N[C@@H](Cc1ccccc1)C(=O)OC(C)(C)C)c1ccccc1`, the Potency is reported as inconclusive [activator, partial curve]. In the case of `COc1ccc(/C=C(/C#N)C(=O)NC2CCCCC2)cc1Br`, the Potency is reported as inconclusive [inhibitor, single point]. For `Cc1cc(NC(=O)COC(=O)CSc2nc3cc(Cl)ccc3n2Cc2ccccc2)no1`, the Potency was inconclusive [inhibitor, partial curve, poor fit]. For `O=C(NCc1ccc(Cl)cc1)c1ccc(Br)o1`, the “activity change, negative = inhibition” value was inactive: 11.7% [at 46.1 µM]. For `CCOc1ccc2[nH]c(=O)c(CN(CCO)C(=O)c3ccc(F)cc3)cc2c1`, the “activity change, negative = inhibition” value was inactive: 6.82% [at 46.1 µM]. For `Cn1c(=O)n(CC(=O)N2CCN(c3nnc(-c4ccccc4)c4ccccc34)CC2)c2ccccc21`, the “activity change, negative = inhibition” value was inactive: -17.3% [at 46.1 µM]. With `O=C(CCCOc1ccc(Cl)cc1Cl)N1CCCc2ccccc21` the Potency was inconclusive [inhibitor, single point]. With `COc1ccccc1C(=O)NC(=S)/C=C1/N(C)c2ccccc2C1(C)C` the “activity change, negative = inhibition” value was inactive: -53.3%. For `CCOC(=O)N1CCC(NC(=O)c2ccc3c(c2)N(C)CCS3)CC1`, the Potency was inconclusive [inhibitor, partial curve]. `COc1ccc(N2CCC(CNC(=S)Nc3ccc(C)cc3C)C2)cc1` (stereo not given) was tested, and the “activity change, negative = inhibition” value was inactive: -48.5%. For `O=C(CN(CC1CCCO1)C(=O)CCC(=O)Nc1nccs1)NCC1CCCO1` (stereo not given), the Potency was inconclusive [inhibitor, single point]. `COc1cccc(-n2nnc3c(=O)n(Cc4cccc(F)c4)cnc32)c1` was tested, and the Potency was inconclusive [inhibitor, partial curve, poor fit]. With `O=S(=O)(NCc1csc(-c2cccnc2)n1)c1ccc(Cl)s1` the Potency was inconclusive [inhibitor, single point]. For `Nc1cc(=O)nc(SCC(=O)N(C2CCCCC2)C2CCCCC2)n1-c1ccccc1`, the Potency was inconclusive [inhibitor, partial curve]. For `O=c1cc(CSc2nnc(COc3ccccc3Cl)o2)nc2sccn12`, the “activity change, negative = inhibition” value was inactive: -24.6% [at 46.1 µM]. With `Cc1ccccc1C(C(=O)NC1CCCC1)N(C(=O)Cc1cccs1)c1ccc2c(c1)OCCO2` (stereo not given) the Potency was inconclusive [inhibitor, partial curve]. For `O=c1[nH]c2c(s1)C(c1ccc(O)cc1)C1C3CCC(C3)C1S2` (stereo not given), the Potency was active: 10 µM. `CCOc1cc(/C=C2/C(=N)N3C=CSC3=NC2=O)ccc1OCCCOc1ccccc1C` was tested, and the Potency was inconclusive [inhibitor, single point]. With `COc1ccc(-n2ncc3c(SCC(=O)N4CCN(c5ccccc5OC)CC4)ncnc32)cc1` the “activity change, negative = inhibition” value was inactive: -4.02%. `CCn1c2ccccc2c2cc(CN3CCN(Cc4cc(OC)ccc4O)CC3)ccc21` was tested, and the “activity change, negative = inhibition” value was inactive: -45.7%. In the case of `COC(=O)CSc1nc2cc3c(cc2cc1C#N)OCO3`, the Potency is reported as inconclusive [inhibitor, single point]. In the case of `COc1ccc(C2=NOC(C(=O)Nc3cccnc3)C2)cc1` (stereo not given), the “activity change, negative = inhibition” value is reported as inactive: -4.01% [at 46.1 µM]. In the case of `CN(Cc1ccccc1)Cc1nc2c(c(=O)n(C)c(=O)n2C)n1CCCc1ccccc1`, the Potency is reported as inconclusive [inhibitor, partial curve]. For `CCOC(=O)C1CCN(c2cc(C)nc3cc(-c4cccc(F)c4)nn23)CC1`, the Potency was inconclusive [inhibitor, partial curve, poor fit]. `O=C(C1CCCN(S(=O)(=O)c2cccc3cccnc23)C1)N1CCN(c2ccccc2F)CC1` (stereo not given) was tested, and the Potency was inconclusive [inhibitor, single point]. With `CCS(=O)(=O)n1nc(-c2ccc(Cl)cc2)nc1SC` the Potency was inconclusive [activator, partial curve]. `CC(C)C(=O)N1CCN(c2ccc(NC(=O)c3ccc4c(c3)OCCO4)cc2Cl)CC1` was tested, and the Potency was inconclusive [inhibitor, single point]. `Oc1ccc(Nc2nc3ccccc3nc2Nc2ccc(O)cc2)cc1` was tested, and the Potency was active: 10 µM. `O=C(NC(NC(=S)Nc1ccc(Cl)cc1Cl)C(Cl)(Cl)Cl)c1cccc([N+](=O)[O-])c1` (stereo not given) was tested, and the Potency was active: 10 µM. With `Oc1c(N=Nc2ccccn2)ccc2ccccc12` the Potency was inconclusive [inhibitor, partial curve]. `CCOC(=O)c1[nH]c(C)c(CN(CCc2ccccc2)S(C)(=O)=O)c1C` was tested, and the Potency was inconclusive [inhibitor, single point]. `CC1(C)CC(=O)C2(CC3=C(CC(C)(C)CC3=O)O2)C(=O)C1` was tested, and the Potency was inconclusive [inhibitor, full curve, poor fit]. With `O=C(c1ccco1)N(CCC(c1ccccc1)c1ccco1)Cc1ccc(F)cc1` (stereo not given) the Potency was inconclusive [inhibitor, partial curve]. With `O=C(Nc1ccccc1)Nc1cc(Cl)cc(Cl)c1` the Potency was inconclusive [inhibitor, single point]. `COc1ccc(-n2nnc3c(=O)n(CC(=O)N4CCCc5ccccc54)cnc32)cc1` was tested, and the “activity change, negative = inhibition” value was inactive: -11% [at 46.1 µM]. For `Cc1nc2ccccc2c(=O)n1/N=C/c1cn[nH]c1-c1ccccc1`, the Potency was inconclusive [inhibitor, single point]. `CCn1c(=S)[nH]c2nc3c(cc2c1=O)CCCC3` was tested, and the Potency was inconclusive [activator, single point]. With `Cc1ccc(-c2nn(-c3ccccc3)cc2C2CC(c3cccs3)=NN2C(=O)CCC(=O)O)cc1` (stereo not given) the Potency was inconclusive [inhibitor, partial curve].
Further: nearly all actives have a fitted effect of over 50% in size.
On the % scale 0 is the no-effect control and ±100 the full control effect; potency means the concentration at half of the fitted maximal effect; tags describe the fitted curve by direction and shape.
